The values below come from article PMC4336329 (PLoS ONE, 2015).

Hit rate of the full screen: of about 310,000 compounds, about 14,000 (4.5%) showed an effect of 50% or more. The effect is printed as a negative number. The list shows a part of the results.
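Further: peak tail current of the secondary pulse compared with the same well before compound.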

Chain of human ether-à-go-go-related gene (hERG) potassium channel (Q12809 whole entry, looked up): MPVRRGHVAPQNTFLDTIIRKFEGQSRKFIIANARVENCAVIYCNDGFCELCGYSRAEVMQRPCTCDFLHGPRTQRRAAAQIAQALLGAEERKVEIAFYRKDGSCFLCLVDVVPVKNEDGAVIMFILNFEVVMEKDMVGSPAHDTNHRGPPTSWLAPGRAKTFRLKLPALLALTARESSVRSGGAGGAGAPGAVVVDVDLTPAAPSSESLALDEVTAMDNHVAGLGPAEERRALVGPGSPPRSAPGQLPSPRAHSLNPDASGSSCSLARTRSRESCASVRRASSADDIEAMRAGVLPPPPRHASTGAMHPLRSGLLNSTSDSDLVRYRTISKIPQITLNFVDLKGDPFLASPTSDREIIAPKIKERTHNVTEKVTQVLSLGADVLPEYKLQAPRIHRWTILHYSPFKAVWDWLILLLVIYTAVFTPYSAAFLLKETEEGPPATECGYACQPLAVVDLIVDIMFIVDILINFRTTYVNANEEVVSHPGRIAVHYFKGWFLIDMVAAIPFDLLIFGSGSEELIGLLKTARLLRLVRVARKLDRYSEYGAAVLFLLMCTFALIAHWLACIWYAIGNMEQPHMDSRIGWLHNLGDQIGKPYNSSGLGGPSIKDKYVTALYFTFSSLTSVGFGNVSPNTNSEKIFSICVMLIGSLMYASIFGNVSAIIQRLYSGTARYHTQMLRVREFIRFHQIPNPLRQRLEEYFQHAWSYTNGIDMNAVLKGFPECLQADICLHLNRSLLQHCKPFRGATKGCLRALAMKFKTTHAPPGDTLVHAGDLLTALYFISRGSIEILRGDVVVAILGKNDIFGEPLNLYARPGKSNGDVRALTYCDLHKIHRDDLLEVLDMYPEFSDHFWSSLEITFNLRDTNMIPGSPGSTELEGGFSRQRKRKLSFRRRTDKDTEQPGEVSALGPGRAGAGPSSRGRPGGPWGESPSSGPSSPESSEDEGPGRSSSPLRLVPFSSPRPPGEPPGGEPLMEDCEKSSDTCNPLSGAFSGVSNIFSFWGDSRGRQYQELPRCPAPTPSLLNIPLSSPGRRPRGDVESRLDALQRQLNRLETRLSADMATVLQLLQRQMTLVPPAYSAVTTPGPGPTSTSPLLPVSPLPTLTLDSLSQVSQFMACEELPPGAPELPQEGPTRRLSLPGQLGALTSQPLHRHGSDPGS

This experiment concerns the target human ether-à-go-go-related gene (hERG) potassium channel (human, UniProt Q12809). Put plainly: primary screen, population patch clamp on CHO cells stably expressing hERG.
Consider `O=C(c1cccc(Oc2c(Cl)cccc2[N+](=O)[O-])c1)N1CCCCC1`, for which the “hERG current change (%, negative = inhibition) at 10uM” value was 7.85%. For the compound `CSCCC(NC(=O)c1ccccc1)C(=O)N1CCCCCCC1` (stereo not drawn), the “hERG current change (%, negative = inhibition) at 10uM” value was -12.2%. `O=C(C(Cc1ccccc1)n1cccc1)N1CCc2ccccc21` (stereo not drawn): the “hERG current change (%, negative = inhibition) at 10uM” value was 2.28%. Turning to `CC1CCCCC12NC(=O)N(CC(=O)c1ccc3c(c1)OCO3)C2=O` (stereo not drawn), the “hERG current change (%, negative = inhibition) at 10uM” value is given as -17.9%. `CCOc1cc(C2NC(=O)NC2=O)ccc1O` (stereo not drawn): the “hERG current change (%, negative = inhibition) at 10uM” value is given as 17.4%. In the case of `CCC(=O)OCC(=O)N=c1sccn1Cc1ccc(C)cc1`, the “hERG current change (%, negative = inhibition) at 10uM” value is on record as -13%. As to `CN1C(=S)N(c2ccccc2)C(=O)/C1=C/c1ccco1`, the “hERG current change (%, negative = inhibition) at 10uM” value is 9.73%. The value for `O=C(C(c1ccccc1)c1ccccc1)N(Cc1ccco1)C1CCS(=O)(=O)C1` (stereo not drawn) was -6.5%; that for `N#C/C(=C\c1cccnc1)c1nc2ccccc2[nH]1` was -10.4%.

`Cc1ccccc1NC(=O)NCC1CCN(Cc2cccc(Cl)c2)CC1`: the “hERG current change (%, negative = inhibition) at 10uM” value is -60%. For `O=C1N/C(=N\N=C\c2ccco2)SC1Cc1ccccc1[N+](=O)[O-]` (stereo not drawn), the “hERG current change (%, negative = inhibition) at 10uM” value was 5.12%. For `COc1ccc(/C=C/c2nnc(NC(=O)CSc3ccc(Cl)cc3)s2)cc1` the value was -0.317%; for `Cc1cc(C)nc(N(C#N)Cc2ccc(Br)cc2)n1`, 4.33%. On to `Cc1ccc(CN2CCN(C/C(Cl)=C/c3ccccc3)CC2CCO)o1` (stereo not drawn), for which the “hERG current change (%, negative = inhibition) at 10uM” value was -45.2%.

Turning to `NNC(=S)NCc1ccco1`, the “hERG current change (%, negative = inhibition) at 10uM” value is -1.18%. Turning to `CC(C)[C@H](NC(=O)[C@H](Cc1ccccc1)n1c(=O)[nH]c2ccccc2c1=O)C(=O)N1CCC[C@@H]1C(=O)O`, the “hERG current change (%, negative = inhibition) at 10uM” value amounted to 12.2%. For `Cc1ccc(/C=C2\SC(=S)N(CCC(=O)NNC(=O)c3ccccc3O)C2=O)cc1`, the “hERG current change (%, negative = inhibition) at 10uM” value turned out to be 5.74%. For `CCOc1ccc(S(=O)(=O)N2CCCCC2)cc1NC(=O)Cc1cccs1` the value was -7.2%.

Take `CCN(CC)c1ccc(NC(=O)CN2C(=O)NC3(CCc4ccccc43)C2=O)cc1` (stereo not drawn): the “hERG current change (%, negative = inhibition) at 10uM” value is given as 8.12%.

For `Cc1ccc(C(C(=O)NC(C)(C)C)N(CC2CCCO2)C(=O)c2csnn2)cc1` (stereo not drawn), the “hERG current change (%, negative = inhibition) at 10uM” value was found to be 0.995%. The value for `N#Cc1ccc(N2Cc3ccccc3/C2=N/C(=O)Nc2ccc(Cl)cc2)cc1` was -15.4%; that for `c1ccc(OCCCn2ccnc2)cc1` was 16.3%. For `CCCN1CCN(S(=O)(=O)c2ccc3c(c2)NC(=O)C(C)C(=O)N3)CC1` (stereo not drawn) the value was 1.15%.

As to `Cc1ccc(C(=O)Nc2ccc3c(c2)C(=O)N(C)C3=O)c(C)c1`, the “hERG current change (%, negative = inhibition) at 10uM” value was 3.54%. In the case of `CCCCOc1ccc(N(CC(=O)NC(C)C)C(=O)CCC(=O)Nc2ccccn2)cc1`, the “hERG current change (%, negative = inhibition) at 10uM” value is given as 20.1%. Take `O=C(NC(=S)Nc1ccccc1N1CCCC1)c1ccccc1[N+](=O)[O-]`: the “hERG current change (%, negative = inhibition) at 10uM” value came out at 12%. For `CC(NS(=O)(=O)/C=C/c1ccccc1)C(=O)O` (stereo not drawn) the value was 9.33%; for `COc1ccc(C(=O)N2CC=C(c3ccccc3)CC2)cc1S(=O)(=O)N1CCOCC1`, -21.4%. Turning to `Cc1ccccc1NC(=O)c1ccc(S(=O)(=O)C(F)F)cc1`, the “hERG current change (%, negative = inhibition) at 10uM” value is recorded as -27.6%. In the case of `COc1ccc(CC(=O)N2CCc3cc(OC)c(OC)cc3C2)cc1`, the “hERG current change (%, negative = inhibition) at 10uM” value is listed as -6.59%.

In the case of `N#CC(c1ccc(Cl)cc1)c1ccc(Cl)nn1` (stereo not drawn), the “hERG current change (%, negative = inhibition) at 10uM” value is reported as -0.526%. For the compound `COc1c(C)cc(Br)cc1C(=O)Nc1ccc(C)cc1[N+](=O)[O-]`, the “hERG current change (%, negative = inhibition) at 10uM” value turned out to be 15.9%. For `CCc1cc2c(NCCC(=O)O)ncnc2s1`, the “hERG current change (%, negative = inhibition) at 10uM” value came to 4.76%. The value for `CCCc1nnc(NC(=O)CCC(=O)N2CCC(Cc3ccccc3)CC2)s1` was -1.49%.

Consider `Cc1ccc2c(CN3CCN(CCO)CC3)cc(=O)oc2c1`, for which the “hERG current change (%, negative = inhibition) at 10uM” value is -74.9%. As for `COc1ccc(CC(=O)Nc2ccccc2N2CCCC2)cc1OC`, the “hERG current change (%, negative = inhibition) at 10uM” value is recorded as -5.03%. For `Cc1ccc(-c2[nH]nc3c2C(c2cccnc2)C(C#N)=C(N)O3)cc1` (stereo not drawn) the value was -7.46%.

For `Cc1cccnc1NC(=O)Cn1nc(-c2ccccc2)oc1=S`, the “hERG current change (%, negative = inhibition) at 10uM” value is -2.2%. The value for `COc1cc(/C=C/C(=O)OCC(=O)N(C)C2CCS(=O)(=O)C2)ccc1OC(F)F` (stereo not drawn) was -10.6%; that for `CCOC(=O)c1ccc(-n2ccnc2)c(NC(=O)c2ccc(Cl)cc2)c1` was -66.2%; that for `COc1cc2c(cc1OC)-c1nncn1C(C)(C)C2` was -6.6%. With `COc1cc(OC)c(C(=O)O/N=C(\N)c2ccccn2)cc1OC`, the “hERG current change (%, negative = inhibition) at 10uM” value is 12.1%.

With `CCC(N)C12CC3CC(CC(O)(C3)C1)C2.Cl` (stereo not drawn), the “hERG current change (%, negative = inhibition) at 10uM” value is recorded as 9.05%. As to `CCc1ccc2nc3sc(C(=O)N4CCc5ccccc54)c(N)c3cc2c1`, the “hERG current change (%, negative = inhibition) at 10uM” value was determined as 11.3%.

In the case of `CCN(CC)S(=O)(=O)c1ccc2c(c1)nc(SCC(=O)N1CCCCCC1)n2-c1ccc(OC)cc1`, the “hERG current change (%, negative = inhibition) at 10uM” value is recorded as -21%. For `COC(=O)C(NC(C)=O)(Nc1ccccc1)C(=O)OC`, the “hERG current change (%, negative = inhibition) at 10uM” value stood at 23.8%.

As to `CC(C)(C)NC(=O)NC(=O)CN1C(=O)NC(C)(c2ccccc2)C1=O` (stereo not drawn), the “hERG current change (%, negative = inhibition) at 10uM” value is listed as 15.8%. Regarding `CC(=O)N1CCN(CC(=O)Nc2ccc3c(c2)CCC3)CC1`, the “hERG current change (%, negative = inhibition) at 10uM” value stood at 7.59%. On to `CC(C)N(CCc1ccncc1)C(=O)Nc1ccc(F)cc1`, for which the “hERG current change (%, negative = inhibition) at 10uM” value was -7.73%. The value for `CC(=Nc1cccc(C)c1)c1sc2ccccc2c1O` was -3.09%. For `Cn1c(SCC(=O)NCc2ccc3c(c2)OCO3)nc2scc(-c3cccs3)c2c1=O` the value was 4.93%; for `Cc1cc(C)c(-c2csc(NC(=O)COC(=O)c3ccc4c(c3)OCO4)n2)c(C)c1`, -1.33%. For `O=C(N/N=C/c1ccccn1)c1cccc([N+](=O)[O-])c1` the value was -10.3%.

As to `c1ccn2c(CNc3ncnc4sccc34)nnc2c1`, the “hERG current change (%, negative = inhibition) at 10uM” value was -1.62%.

Turning to `Cc1nn(-c2ccccc2)nc1C(N)=O`, the “hERG current change (%, negative = inhibition) at 10uM” value is given as 14.5%.

With `CC(=O)COc1ccc2c3c(c(=O)oc2c1C)CCCCC3`, the “hERG current change (%, negative = inhibition) at 10uM” value was -8.54%. For `COc1cc2c(cc1OC)CN(C(=O)c1cc(S(=O)(=O)N3CCOCC3)ccc1Cl)CC2`, the “hERG current change (%, negative = inhibition) at 10uM” value is given as -13.9%.

Take `O=C1NCCN1Cc1ccc(Cl)cc1`: the “hERG current change (%, negative = inhibition) at 10uM” value worked out at 11.1%. The value for `CCCCCCCNC(=O)C1(CC2CC(c3ccc(Cl)cc3)=NO2)CCN(C(=O)C2(C)CC2)CC1` (stereo not drawn) was -55.8%; that for `Cc1oc(C2CC2)cc1C(=O)O` was -9.52%; that for `CC(=O)c1cnc2c(-c3ccc(Cl)cc3)c(C)nn2c1C` was -1.58%. Consider `O=C(CNC(=O)c1ccccc1)NCC1COc2ccccc2O1` (stereo not drawn), for which the “hERG current change (%, negative = inhibition) at 10uM” value is reported as 3.74%. `CCCn1c(N)c(N(CCOC)C(=O)c2ccc(-c3ccccc3)cc2)c(=O)[nH]c1=O`: the “hERG current change (%, negative = inhibition) at 10uM” value was found to be 7.06%.

For the compound `N#Cc1ccc(C(=O)NCC(c2ccco2)N2CCCC2)cc1` (stereo not drawn), the “hERG current change (%, negative = inhibition) at 10uM” value is on record as -20.3%.

On to `O=C(c1ccco1)N1CCN(C(=O)C2(S(=O)(=O)c3ccc(Cl)cc3)CC2)CC1`, for which the “hERG current change (%, negative = inhibition) at 10uM” value is -34%. The value for `NC(=S)NNc1ccc(Cl)c(Cl)c1` was 16.3%; that for `Cc1cc(NC(=O)C2CCN(S(=O)(=O)Cc3ccccc3)CC2)ccc1-n1cnnn1` was -9.11%; that for `O=C(O)C1C2C=CC(O2)C1C(=O)NCCCn1ccnc1` (stereo not drawn) was 7.11%.

In the case of `Cc1cc(N/N=C/c2ccccc2F)nc(NCc2ccccc2)n1`, the “hERG current change (%, negative = inhibition) at 10uM” value was 14.4%.

Consider `COc1cc(-c2nnc(SCC(=O)/C(C#N)=C(\C)N)o2)cc(OC)c1OC`, for which the “hERG current change (%, negative = inhibition) at 10uM” value is listed as -4.13%. Consider `O=C(CNC(=O)C1COc2ccccc2O1)N/N=C/c1ccc([N+](=O)[O-])cc1` (stereo not drawn), for which the “hERG current change (%, negative = inhibition) at 10uM” value is -71.8%. For `CCCCCn1c(=O)c(Cc2ccccc2)c(O)c2ccccc21` the value was -13.3%; for `CCCCn1c(CCc2ccccc2)nc2cc3[nH]c(=O)c(C(C)C)nc3cc21`, 12%. The value for `COc1ccc(NC(=O)C(NC(C)=O)C(=O)NCc2ccc(F)cc2)cc1` (stereo not drawn) was 10%; that for `CC(NC(=O)/C(C#N)=C/c1cccs1)c1ccccc1` (stereo not drawn) was -10.2%. For `CC(C)CCNc1ncnc2c1nnn2Cc1ccccc1` the value was 0.724%; for `O=[N+]([O-])c1cccc(-c2n[nH]c(=S)n2-c2ccccc2)c1`, 22.3%. Turning to `O=c1[nH]c(SCc2nc3ccccc3c(=O)n2-c2ccccc2)nc2ccccc12`, the “hERG current change (%, negative = inhibition) at 10uM” value is on record as -2.13%. In the case of `CSc1cccc(NC(=S)N(CCCN2CCC(C)CC2)Cc2cccs2)c1`, the “hERG current change (%, negative = inhibition) at 10uM” value is on record as -72.9%.

Turning to `O=C(/C=C/c1ccc([N+](=O)[O-])cc1)Oc1ccc(/C=N/NC(=O)c2ccncc2)cc1`, the “hERG current change (%, negative = inhibition) at 10uM” value was 12.1%.

`COc1ccc(C(=O)N2CCc3ccccc32)cc1`: the “hERG current change (%, negative = inhibition) at 10uM” value is recorded as 2.71%. The value for `Cc1cc(-c2nnc(SCCC(=O)Nc3ccccc3)o2)no1` was 10.6%; that for `CC1(C)CC(=O)C(/C=N/n2cnc3ccccc3c2=O)=C(O)C1` was 12.7%; that for `CC1CCC(NC(=O)c2cc3ccccc3cc2O)CC1` (stereo not drawn) was 0.709%. In the case of `Cc1cc(C)nc(-n2ncc3c2CC(C)CC3=O)n1` (stereo not drawn), the “hERG current change (%, negative = inhibition) at 10uM” value turned out to be 4.89%. The value for `COc1ccc(CC(NC(C)=O)C(=O)NC2CCN(C(=O)Nc3ccc(Cl)cc3)CC2)cc1OC` (stereo not drawn) was -5.23%; that for `O=C(CCNS(=O)(=O)c1ccc(Br)cc1)NCc1ccc2c(c1)OCO2` was -3.3%. The value for `Cc1ccccc1N(CC(=O)NC1CCCC1)C(=O)C1(C)CC(=O)N=C2C=CC(Cl)=CN21` (stereo not drawn) was 13.4%; that for `Cc1cc(C(=O)N2CCCC(C(=O)c3ccc4ccccc4c3)C2)n(C)n1` (stereo not drawn) was -2.06%; that for `COCC(C)NC(=O)c1cc2cc(OC)ccc2[nH]1` (stereo not drawn) was 15.5%.
